Assay results: a collection of fitness landscapes (doi:10.1126/science.1257360)
The list shows a part of the results.

B1: PhoQ; a variant is named by its letters at X, in order, P23837 (parent)
chain: MKKLLRLFFPLSLRVRFLLATAAVVLVLSLAYGMVALIGYSVSFDKTTFRLLRGESNLFYTLAKWENNKLHVELPENIDKQSPTMTLIYDENGQLLWAQRDVPWLMKMIQPDWLKSNGFHEIEADVNDTSLLLSGDHSIQQQLQEVREDDDDAEMTHSVAVNVYPATSRMPKLTIVVVDTIPVELKSSYMVWSWFIYVLSANLLLVIPLLWVAAWWSLRPIEALAKEVRELEEHNRELLNPATTRELTSLVRNLNRLLKSERERYDKYRTTLTDLTHSLKTPLXXLQXXLRSLRSEKMSVSDAEPVMLEQISRISQQIGYYLHRASMRGGTLLSRELHPVAPLLDNLTSALNKVYQRKGVNISLDISPEISFVGEQNDFVEVMGNVLDNACKYCLEFVEISARQTDEHLYIVVEDDGPGIPLSKREVIFDRGQRVDTLRPGQGVGLAVAREITEQYEGKIVAGESMLGGARMEVIFGRQHSAPKDE

Variants of: B1
Experiment: enrichment ratio after two sorts for PhoP signalling (ratio (wild type AVST 3.29)); higher = more functional
Details: with PhoP (E. coli)

| Variant | enrichment ratio |
| --- | --- |
| GSIQ | 5.89 |
| TAMP | ≤ 0.25 |
| QRYM | ≤ 0.25 |
| GVKD | ≤ 0.25 |
| YVHP | ≤ 0.25 |
| ERCW | ≤ 0.25 |
| HNTD | ≤ 0.25 |
| IASK | ≤ 0.25 |
| PIEL | ≤ 0.25 |
| MGPE | ≤ 0.25 |
| QIQR | ≤ 0.25 |
| NELR | ≤ 0.25 |
| TVAL | 6.12 |
| HGMK | ≤ 0.25 |
| KGAL | ≤ 0.25 |
| KVLS | ≤ 0.25 |
| ACQF | ≤ 0.25 |
| HPGR | ≤ 0.25 |
| MSWI | 14.1 |
| IGDA | ≤ 0.25 |
| YMQP | ≤ 0.25 |
| EPFD | ≤ 0.25 |
| QNQN | ≤ 0.25 |
| PWWR | ≤ 0.25 |

| Variant | enrichment ratio |
| --- | --- |
| SVEN | ≤ 0.25 |
| SQQD | ≤ 0.25 |
| GTLS | 9.81 |
| MYRP | ≤ 0.25 |
| PNMA | ≤ 0.25 |
| MYIN | ≤ 0.25 |
| LWAH | ≤ 0.25 |
| ERAV | ≤ 0.25 |
| LIWG | ≤ 0.25 |
| QQIP | ≤ 0.25 |
| IYSA | ≤ 0.25 |
| ITCG | ≤ 0.25 |
| INLP | ≤ 0.25 |
| PVLC | ≤ 0.25 |
| RLNL | ≤ 0.25 |
| DKEI | ≤ 0.25 |
| TLRR | ≤ 0.25 |
| VFYD | ≤ 0.25 |
| HKNV | ≤ 0.25 |
| RKNT | ≤ 0.25 |
| NYYK | ≤ 0.25 |
| WFNI | ≤ 0.25 |
| VHLF | ≤ 0.25 |
| FIWR | ≤ 0.25 |

| Variant | enrichment ratio |
| --- | --- |
| NHFF | ≤ 0.25 |
| QHAS | ≤ 0.25 |
| IMLF | ≤ 0.25 |
| TVVR | ≤ 0.25 |
| DYMN | ≤ 0.25 |
| FFWN | ≤ 0.25 |
| YKFD | ≤ 0.25 |
| QKAS | ≤ 0.25 |
| AIHL | ≤ 0.25 |
| FDDI | ≤ 0.25 |
| WSEY | ≤ 0.25 |
| INCT | ≤ 0.25 |
| RGVN | ≤ 0.25 |
| LLEI | ≤ 0.25 |
| RFDL | ≤ 0.25 |
| PISG | ≤ 0.25 |
| CTPS | ≤ 0.25 |
| EDHL | ≤ 0.25 |
| WSAP | ≤ 0.25 |
| DCAQ | ≤ 0.25 |
| DKVF | ≤ 0.25 |
| YIHG | ≤ 0.25 |
| GFAP | ≤ 0.25 |
| QLQH | ≤ 0.25 |

| Variant | enrichment ratio |
| --- | --- |
| QSPK | ≤ 0.25 |
| PMTI | ≤ 0.25 |
| PNYR | ≤ 0.25 |
| VMGR | ≤ 0.25 |
| SVFW | ≤ 0.25 |
| DMFY | ≤ 0.25 |
| TMLS | 4.79 |
| AVPW | ≤ 0.25 |
| HAFN | ≤ 0.25 |
| HTIW | ≤ 0.25 |
| MHMC | ≤ 0.25 |
| FLSA | ≤ 0.25 |
| ITQH | ≤ 0.25 |
| FFCH | ≤ 0.25 |
| FVQD | ≤ 0.25 |
| ASQE | ≤ 0.25 |
| FMGS | ≤ 0.25 |
| VIHL | ≤ 0.25 |
| WGKG | ≤ 0.25 |
| VKYK | ≤ 0.25 |
| PYVL | ≤ 0.25 |
| QWSP | ≤ 0.25 |
| RPGD | ≤ 0.25 |
| PYGG | ≤ 0.25 |

| Variant | enrichment ratio |
| --- | --- |
| VFTM | ≤ 0.25 |
| YPGH | ≤ 0.25 |
| FYFM | 0.584 |
| MLSN | ≤ 0.25 |
| YMGL | ≤ 0.25 |
| AYET | ≤ 0.25 |
| KVYV | ≤ 0.25 |
| KTEK | ≤ 0.25 |
| SDSQ | ≤ 0.25 |
| HGTM | 0.737 |
| MVVT | ≤ 0.25 |
| QTMM | ≤ 0.25 |
| HHWL | ≤ 0.25 |
| QRKR | ≤ 0.25 |
| IRYN | ≤ 0.25 |
| QMVC | ≤ 0.25 |
| PGTE | ≤ 0.25 |
| LKDQ | ≤ 0.25 |
| HIFD | ≤ 0.25 |
| HLMA | ≤ 0.25 |
| HVVW | ≤ 0.25 |
| SCRV | ≤ 0.25 |
| SIQD | 4.03 |
| FWAH | ≤ 0.25 |

| Variant | enrichment ratio |
| --- | --- |
| PPLD | ≤ 0.25 |
| PNNQ | ≤ 0.25 |
| LIWF | ≤ 0.25 |
| RMLI | ≤ 0.25 |
| VLWN | ≤ 0.25 |
| NNVT | ≤ 0.25 |
| HFRF | ≤ 0.25 |
| DKNF | ≤ 0.25 |
| KLVV | ≤ 0.25 |
| NINT | ≤ 0.25 |
| LVQN | ≤ 0.25 |
| VFLM | ≤ 0.25 |
| NHIA | ≤ 0.25 |
| YFKI | ≤ 0.25 |
| WFYD | ≤ 0.25 |
| GVIN | ≤ 0.25 |
| TMLK | ≤ 0.25 |
| QYKN | ≤ 0.25 |
| SYMD | ≤ 0.25 |
| PWKP | ≤ 0.25 |
| PSKN | ≤ 0.25 |
| WHVQ | ≤ 0.25 |
| VEHR | ≤ 0.25 |
| HDER | ≤ 0.25 |

| Variant | enrichment ratio |
| --- | --- |
| NPWE | ≤ 0.25 |
| REQH | ≤ 0.25 |
| STWI | ≤ 0.25 |
| KGVG | ≤ 0.25 |
| RWAR | ≤ 0.25 |
| HKTG | ≤ 0.25 |
| NKGN | ≤ 0.25 |
| YVCP | ≤ 0.25 |
| PNGH | ≤ 0.25 |
| NHAS | ≤ 0.25 |
| SNQC | 1.09 |
| KGNM | ≤ 0.25 |
| HKNN | ≤ 0.25 |
| YNLN | ≤ 0.25 |
| QFHD | ≤ 0.25 |
| YMYS | ≤ 0.25 |
| PIKC | ≤ 0.25 |
| PAEH | ≤ 0.25 |
| EPIP | ≤ 0.25 |
| YQCN | 0.346 |
| PREK | ≤ 0.25 |
| MQQG | ≤ 0.25 |
| LQVA | ≤ 0.25 |
| FMWW | ≤ 0.25 |

| Variant | enrichment ratio |
| --- | --- |
| AQDT | ≤ 0.25 |
| YRIY | ≤ 0.25 |
| SRIK | ≤ 0.25 |
| SAIE | ≤ 0.25 |
| RDWP | ≤ 0.25 |
| ATIN | 11.9 |
| WCLY | ≤ 0.25 |
| TIWG | ≤ 0.25 |
| YISH | 0.528 |
| MMHG | ≤ 0.25 |
| PYGI | ≤ 0.25 |
| WHGY | ≤ 0.25 |
| DGTL | ≤ 0.25 |
| AEGY | 43.4 |
| WQPF | ≤ 0.25 |
| TYWT | ≤ 0.25 |
| LFWL | ≤ 0.25 |
| NSAD | ≤ 0.25 |
| NDAY | ≤ 0.25 |
| SSVM | 17.6 |
| DYGG | ≤ 0.25 |
| NPSQ | ≤ 0.25 |
| GSNS | ≤ 0.25 |
| LIVG | ≤ 0.25 |

| Variant | enrichment ratio |
| --- | --- |
| AFRY | ≤ 0.25 |
| MDQT | ≤ 0.25 |
| HMSS | ≤ 0.25 |
| RCCV | ≤ 0.25 |
| HCCN | ≤ 0.25 |
| DQAF | ≤ 0.25 |
| MSWR | ≤ 0.25 |
| LKGA | ≤ 0.25 |
| QFKP | ≤ 0.25 |
| PNMH | ≤ 0.25 |
| RIDH | ≤ 0.25 |
| LTWP | ≤ 0.25 |
| RSPV | 0.604 |
| LFPT | ≤ 0.25 |
| HNCY | ≤ 0.25 |
| SVPL | 10.6 |
| VMRT | ≤ 0.25 |
| HSTL | 5.46 |
| IPIK | ≤ 0.25 |
| YEPY | ≤ 0.25 |
| VWCI | ≤ 0.25 |
| YAVF | ≤ 0.25 |
| AMQE | ≤ 0.25 |
| KYMQ | ≤ 0.25 |

| Variant | enrichment ratio |
| --- | --- |
| NASK | ≤ 0.25 |
| MFSY | ≤ 0.25 |
| QGYH | ≤ 0.25 |
| SHDH | ≤ 0.25 |
| LNED | ≤ 0.25 |
| YQRF | ≤ 0.25 |
| RYRT | ≤ 0.25 |
| MIAL | 8.8 |
| HDGH | ≤ 0.25 |
| AKKQ | ≤ 0.25 |
| QAEL | ≤ 0.25 |
| IKGL | ≤ 0.25 |
| YYPI | ≤ 0.25 |
| LRLP | ≤ 0.25 |
| CLSH | ≤ 0.25 |
| MYST | ≤ 0.25 |
| MDRM | ≤ 0.25 |
| MKTH | ≤ 0.25 |
| ALPD | ≤ 0.25 |
| LFFA | 0.765 |
| PALT | ≤ 0.25 |
| IHDA | ≤ 0.25 |
| YSDE | ≤ 0.25 |
| VIMF | ≤ 0.25 |

| Variant | enrichment ratio |
| --- | --- |
| DWKC | ≤ 0.25 |
| AWNF | ≤ 0.25 |
| HHTE | ≤ 0.25 |
| TRVK | ≤ 0.25 |
| PTFK | ≤ 0.25 |
| TPAF | ≤ 0.25 |
| GYHD | ≤ 0.25 |
| PMNL | ≤ 0.25 |
| VKDG | ≤ 0.25 |
| IVYC | ≤ 0.25 |
| INMW | ≤ 0.25 |
| RRRV | ≤ 0.25 |
| VSRL | ≤ 0.25 |
| QPYS | ≤ 0.25 |
| MVIK | ≤ 0.25 |
| FRWV | ≤ 0.25 |
| PAGP | ≤ 0.25 |
| NHII | ≤ 0.25 |
| AQAP | ≤ 0.25 |
| DQRT | ≤ 0.25 |
| IPIE | ≤ 0.25 |
| FRAQ | ≤ 0.25 |
| LTWL | ≤ 0.25 |
| WGRE | ≤ 0.25 |

| Variant | enrichment ratio |
| --- | --- |
| VAVI | ≤ 0.25 |
| KVQE | ≤ 0.25 |
| KFRP | ≤ 0.25 |
| ISFM | 0.832 |
| GNNC | ≤ 0.25 |
| HGPE | ≤ 0.25 |
| GYTG | ≤ 0.25 |
| ARMP | ≤ 0.25 |
| MGVM | 5.79 |
| TKVP | ≤ 0.25 |
| WKFS | ≤ 0.25 |
| HLFQ | ≤ 0.25 |
| YHHH | ≤ 0.25 |
| HTEK | ≤ 0.25 |
| TFYK | ≤ 0.25 |
| NENL | ≤ 0.25 |
| VKEM | ≤ 0.25 |
| RDER | ≤ 0.25 |
| KVDA | ≤ 0.25 |
| IWTW | ≤ 0.25 |
| WAVG | ≤ 0.25 |
| RLPA | ≤ 0.25 |
| HTGQ | ≤ 0.25 |
| PDDP | ≤ 0.25 |

| Variant | enrichment ratio |
| --- | --- |
| HRAI | ≤ 0.25 |
| MPIS | ≤ 0.25 |
| VAFV | ≤ 0.25 |
| ETWL | ≤ 0.25 |
| EALN | ≤ 0.25 |
| SIYM | 0.397 |
| FNND | ≤ 0.25 |
| EGLK | ≤ 0.25 |
| HSWL | ≤ 0.25 |
| RHNC | ≤ 0.25 |
| GMGM | ≤ 0.25 |
| LHSD | ≤ 0.25 |
| NCVG | ≤ 0.25 |
| DRCW | ≤ 0.25 |
| AEKG | ≤ 0.25 |
| IRLI | ≤ 0.25 |
| GIAK | 4.42 |
| NTGC | ≤ 0.25 |
